Some of the results follow.
What was measured:
Experiment in all cases: glycan array binding signal (z-score within array); higher = stronger binding
Conditions in all cases: glycan notation: IUPAC condensed, linker removed
[1] = target: Fuc(a1-2)Gal6S(b1-3)GlcNAc6S
Method in brief: (§1)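 Glycan array data were curated from 3228 arrays in the Consortium for Functional Glycomics database and kept only where the protein sequence was available. Glycan names were converted to IUPAC-condensed notation, and columns mapping to the same glycan were averaged. The binding signal is a within-array Z-score, averaged across arrays of the same protein sequence at different concentrations or buffers and across linkers. Negative Z-scores can be read as non-binding.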

Fuc(a1-2)Gal6S(b1-4)Glc = target: Fuc(a1-2)Gal6S(b1-4)Glc
Method in brief: as §1

[2] = target: Fuc(a1-2)Gal6S(b1-4)Glc6S
Method in brief: as §1

Fuc(a1-2)[Gal(a1-3)]Gal = target: Fuc(a1-2)[Gal(a1-3)]Gal
Method in brief: as §1

[3] = target: Fuc(a1-2)[Gal(a1-3)]Gal(b1-3)GalNAc
Method in brief: as §1

[4] = target: Fuc(a1-2)[Gal(a1-3)]Gal(b1-3)GalNAc(b1-3)Gal(a1-4)Gal(b1-4)Glc
Method in brief: as §1

[5] = target: Fuc(a1-2)[Gal(a1-3)]Gal(b1-3)GlcNAc
Method in brief: as §1

[6] = target: Fuc(a1-2)[Gal(a1-3)]Gal(b1-3)GlcNAc(b1-2)Man(a1-3)[Fuc(a1-2)[Gal(a1-3)]Gal(b1-3)GlcNAc(b1-2)Man(a1-6)]Man(b1-4)GlcNAc(b1-4)GlcNAc
Method in brief: as §1

[7] = target: Fuc(a1-2)[Gal(a1-3)]Gal(b1-3)GlcNAc(b1-2)Man(a1-3)[Fuc(a1-2)[Gal(a1-3)]Gal(b1-3)GlcNAc(b1-2)Man(a1-6)]Man(b1-4)GlcNAc(b1-4)[Fuc(a1-6)]GlcNAc
Method in brief: as §1

[8] = target: Fuc(a1-2)[Gal(a1-3)]Gal(b1-3)GlcNAc(b1-3)GalNAc
Method in brief: as §1

[9] = target: Fuc(a1-2)[Gal(a1-3)]Gal(b1-3)GlcNAc(b1-6)GalNAc
Method in brief: as §1

[10] = target: Fuc(a1-2)[Gal(a1-3)]Gal(b1-4)Glc
Method in brief: as §1

[11] = target: Fuc(a1-2)[Gal(a1-3)]Gal(b1-4)GlcNAc
Method in brief: as §1

[12] = target: Fuc(a1-2)[Gal(a1-3)]Gal(b1-4)GlcNAc(b1-2)Man
Method in brief: as §1

[13] = target: Fuc(a1-2)[Gal(a1-3)]Gal(b1-4)GlcNAc(b1-2)Man(a1-3)[Fuc(a1-2)[Gal(a1-3)]Gal(b1-4)GlcNAc(b1-2)Man(a1-6)]Man(b1-4)GlcNAc(b1-4)GlcNAc
Method in brief: as §1

[14] = target: Fuc(a1-2)[Gal(a1-3)]Gal(b1-4)GlcNAc(b1-2)Man(a1-3)[Fuc(a1-2)[Gal(a1-3)]Gal(b1-4)GlcNAc(b1-2)Man(a1-6)]Man(b1-4)GlcNAc(b1-4)[Fuc(a1-6)]GlcNAc
Method in brief: as §1

[15] = target: Fuc(a1-2)[Gal(a1-3)]Gal(b1-4)GlcNAc(b1-3)GalNAc
Method in brief: as §1

[16] = target: Fuc(a1-2)[Gal(a1-3)]Gal(b1-4)GlcNAc(b1-3)[Fuc(a1-2)[Gal(a1-3)]Gal(b1-4)GlcNAc(b1-6)]GalNAc
Method in brief: as §1

[17] = target: Fuc(a1-2)[Gal(a1-3)]Gal(b1-4)GlcNAc(b1-6)GalNAc
Method in brief: as §1

[18] = target: Fuc(a1-2)[Gal(a1-3)]Gal(b1-4)[Fuc(a1-3)]Glc
Method in brief: as §1

[19] = target: Fuc(a1-2)[Gal(a1-3)]Gal(b1-4)[Fuc(a1-3)]GlcNAc
Method in brief: as §1

[20] = target: Fuc(a1-2)[Gal(a1-3)]Gal(b1-4)[Fuc(a1-3)]GlcNAc(b1-3)GalNAc
Method in brief: as §1

[21] = target: Fuc(a1-2)[Gal(a1-4)]Gal(b1-4)GlcNAc
Method in brief: as §1

[22] = target: Fuc(a1-2)[GalNAc(a1-3)]Gal
Method in brief: as §1

[23] = target: Fuc(a1-2)[GalNAc(a1-3)]Gal(b1-3)GalNAc(a1-3)[Fuc(a1-2)]Gal(b1-4)GlcNAc
Method in brief: as §1

[24] = target: Fuc(a1-2)[GalNAc(a1-3)]Gal(b1-3)GalNAc(b1-3)Gal(a1-4)Gal(b1-4)Glc
Method in brief: as §1

[25] = target: Fuc(a1-2)[GalNAc(a1-3)]Gal(b1-3)GlcNAc
Method in brief: as §1

[26] = target: Fuc(a1-2)[GalNAc(a1-3)]Gal(b1-3)GlcNAc(b1-2)Man(a1-3)[Fuc(a1-2)[GalNAc(a1-3)]Gal(b1-3)GlcNAc(b1-2)Man(a1-6)]Man(b1-4)GlcNAc(b1-4)GlcNAc
Method in brief: as §1

[27] = target: Fuc(a1-2)[GalNAc(a1-3)]Gal(b1-3)GlcNAc(b1-2)Man(a1-3)[Fuc(a1-2)[GalNAc(a1-3)]Gal(b1-3)GlcNAc(b1-2)Man(a1-6)]Man(b1-4)GlcNAc(b1-4)[Fuc(a1-6)]GlcNAc
Method in brief: as §1

[28] = target: Fuc(a1-2)[GalNAc(a1-3)]Gal(b1-3)GlcNAc(b1-3)GalNAc
Method in brief: as §1

[29] = target: Fuc(a1-2)[GalNAc(a1-3)]Gal(b1-3)GlcNAc(b1-6)GalNAc
Method in brief: as §1

[30] = target: Fuc(a1-2)[GalNAc(a1-3)]Gal(b1-4)Glc
Method in brief: as §1

[31] = target: Fuc(a1-2)[GalNAc(a1-3)]Gal(b1-4)GlcNAc
Method in brief: as §1

[32] = target: Fuc(a1-2)[GalNAc(a1-3)]Gal(b1-4)GlcNAc(b1-2)Man
Method in brief: as §1

[33] = target: Fuc(a1-2)[GalNAc(a1-3)]Gal(b1-4)GlcNAc(b1-2)Man(a1-3)[Fuc(a1-2)[GalNAc(a1-3)]Gal(b1-4)GlcNAc(b1-2)Man(a1-6)]Man(b1-4)GlcNAc(b1-4)GlcNAc
Method in brief: as §1

[34] = target: Fuc(a1-2)[GalNAc(a1-3)]Gal(b1-4)GlcNAc(b1-2)Man(a1-3)[Fuc(a1-2)[GalNAc(a1-3)]Gal(b1-4)GlcNAc(b1-2)Man(a1-6)]Man(b1-4)GlcNAc(b1-4)[Fuc(a1-6)]GlcNAc
Method in brief: as §1

[35] = target: Fuc(a1-2)[GalNAc(a1-3)]Gal(b1-4)GlcNAc(b1-3)Gal(b1-4)GlcNAc
Method in brief: as §1

[36] = target: Fuc(a1-2)[GalNAc(a1-3)]Gal(b1-4)GlcNAc(b1-3)Gal(b1-4)GlcNAc(b1-3)Gal(b1-4)GlcNAc
Method in brief: as §1

[37] = target: Fuc(a1-2)[GalNAc(a1-3)]Gal(b1-4)GlcNAc(b1-3)GalNAc
Method in brief: as §1

[38] = target: Fuc(a1-2)[GalNAc(a1-3)]Gal(b1-4)GlcNAc(b1-3)[Fuc(a1-2)[GalNAc(a1-3)]Gal(b1-4)GlcNAc(b1-6)]GalNAc
Method in brief: as §1

[39] = target: Fuc(a1-2)[GalNAc(a1-3)]Gal(b1-4)GlcNAc(b1-6)GalNAc
Method in brief: as §1

[40] = target: Fuc(a1-2)[GalNAc(a1-3)]Gal(b1-4)[Fuc(a1-3)]GlcNAc
Method in brief: as §1

[41] = target: Fuc(a1-2)[GalNAc(a1-3)]Gal(b1-4)[Fuc(a1-3)]GlcNAc(b1-3)GalNAc
Method in brief: as §1

[42] = target: Fuc(a1-2)[GalNAc(a1-4)]Gal(b1-4)GlcNAc
Method in brief: as §1

[43] = target: Fuc(a1-2)[GalNAc(b1-3)]Gal
Method in brief: as §1

B1: Arath Fbox LD (Arabidopsis thaliana) (protein)
chain: EFSVWLEKASGKRCLMLSAMNLSIIWGDNPQYWQWIPIPESRFEKVAKLRDVCWFEIRGRTNTRVLSPRTRYSAYIVFKGVDKCYGFQNVAIEAAVGVVGQEPSRRLICFSEAIRRGRRNVVKPKQREDGWMEIELGEFFNDGGIMDNDEIEMSALETKQLNRKCGLIIQGIEIRPAKILAAASFLEQKLISEEDLNSAVDHHHHHH
- glycan array binding signal (z-score) [1]: 0.016
- glycan array binding signal (z-score) (Fuc(a1-2)Gal6S(b1-4)Glc): 0.262
- glycan array binding signal (z-score) [2]: -0.402
- glycan array binding signal (z-score) (Fuc(a1-2)[Gal(a1-3)]Gal): -0.099
- glycan array binding signal (z-score) [3]: 0.53
- glycan array binding signal (z-score) [4]: -0.57
- glycan array binding signal (z-score) [5]: 1.92
- glycan array binding signal (z-score) [6]: -0.506
- glycan array binding signal (z-score) [7]: -0.248
- glycan array binding signal (z-score) [8]: -0.413
- glycan array binding signal (z-score) [9]: -0.254
- glycan array binding signal (z-score) [10]: -0.157
- glycan array binding signal (z-score) [11]: -0.058
- glycan array binding signal (z-score) [12]: -0.448
- glycan array binding signal (z-score) [13]: 0.824
- glycan array binding signal (z-score) [14]: -0.172
- glycan array binding signal (z-score) [15]: 0.04
- glycan array binding signal (z-score) [16]: -0.16
- glycan array binding signal (z-score) [17]: -0.38
- glycan array binding signal (z-score) [18]: -0.421
- glycan array binding signal (z-score) [19]: -0.333
- glycan array binding signal (z-score) [20]: 0.922
- glycan array binding signal (z-score) [21]: -0.285
- glycan array binding signal (z-score) [22]: 0.243
- glycan array binding signal (z-score) [23]: 0.405
- glycan array binding signal (z-score) [24]: -0.608
- glycan array binding signal (z-score) [25]: -0.144
- glycan array binding signal (z-score) [26]: -0.597
- glycan array binding signal (z-score) [27]: -0.214
- glycan array binding signal (z-score) [28]: -0.465
- glycan array binding signal (z-score) [29]: -0.557
- glycan array binding signal (z-score) [30]: 0.172
- glycan array binding signal (z-score) [31]: -0.466
- glycan array binding signal (z-score) [32]: -0.497
- glycan array binding signal (z-score) [33]: -0.107
- glycan array binding signal (z-score) [34]: -0.243
- glycan array binding signal (z-score) [35]: -0.556
- glycan array binding signal (z-score) [36]: -0.59
- glycan array binding signal (z-score) [37]: -0.127
- glycan array binding signal (z-score) [38]: -0.433
- glycan array binding signal (z-score) [39]: -0.583
- glycan array binding signal (z-score) [40]: 1.16
- glycan array binding signal (z-score) [41]: -0.017
- glycan array binding signal (z-score) [42]: 0.47
- glycan array binding signal (z-score) [43]: 1.09

— the supplement of paper PMC8728848
